Reference: ChEMBL document CHEMBL4888484, “Replenishing the malaria drug discovery pipeline: Screening and hit evaluation of the MMV Hit Generation Library 1 (HGL1) against asexual blood stage Plasmodium falciparum ,using a nano luciferase reporter read-out” (2022)
The whole screen tested about 4,800 compounds, of which about 420 (8.8%) showed an effect of 50% or more. This is one part of the list.

tested on: Plasmodium falciparum; experiment: Confirmatory screen in NF54 nanoGlo assay, in single point, at 2uM, 72h; assay type: functional, Erythrocyte; details: timepoint 72 hour

| Compound | % Inhibition [%] |
| --- | --- |
| CCC(CC)C(=O)Nc1cccc(Cl)c1C | -1 |
| O=C(Nc1ccc(OC2CCC2)c(F)c1)N1CC[C@H](O)C1 | -2 |
| O=C(Cc1ccccc1Cl)N1CCc2[nH]nc(C(=O)N3CCN(c4ccc(F)cc4)CC3)c2C1 | -1 |
| O=C(NCc1ccccc1)c1cnn2c3c(cnc12)CCCCCC3 | 2 |
| C#CCN(CCCc1ccccc1C)[C@H]1CCS(=O)(=O)C1 | -9 |
| Cc1ccnc(-c2ccc(NC(=O)[C@@H]3CCN(c4ccc(Cl)cc4)C3=O)cc2)n1 | -21 |
| NC(=O)c1ccc(C(F)(F)F)n(CC(=O)N(Cc2ccc(F)cc2)C2CCCCC2)c1=O | -6 |
| COc1ccc2c(c1)/C(=C1/SC(C(C)=O)=C(c3ccccc3)S1)C(=S)C(C)(C)N2C(=O)Nc1ccc(Cl)c(Cl)c1 | -7 |
| COc1ccc(NC(=O)C2C3NC(=O)N(c4ccccc4)C2(C)Oc2ccc(Cl)cc23)cc1 (configuration not stated) | -12 |
| NC(=O)COCC(=O)Nc1ccccc1 | -17 |
| COc1cccc(C2=Nc3cccnc3N(CC(=O)Nc3ccc(C)c(Cl)c3)C(=O)C2)c1 | -4 |
| CC(C)Cn1nc2ccc(S(=O)(=O)N3CCOCC3)cn2c1=O | -3 |
| COCCNc1cncc(Br)c1 | -4 |
| O=C(Cc1ccccc1)Nc1cccc2c1C(=O)N(c1ccccc1)C2=O | -14 |
| Cc1cccc2sc(N3CCC[C@H](CNS(N)(=O)=O)C3)nc12 | 1 |
| COc1cccc(NC(=O)N2CCN(c3nc4ccccc4n(Cc4ccccc4)c3=O)CC2)c1 | -3 |
| Cc1c(N=C2NC3(CCCCC3)Cc3ccccc32)c(=O)n(C)n1-c1ccccc1 | -1 |
| O=C1CCCN1c1ccc(-c2csc(C3CC3)n2)cc1 | -12 |
| COc1ccc([C@H](NC(=O)CCc2ccccc2)c2c(O)ccc3ccccc23)cc1 | 41 |
| COCC(=O)NC1CCC(NC(=O)c2csc(COc3cc(C)ccc3C(C)C)n2)CC1 (configuration not stated) | 9 |
| COc1ccc(-c2nn(-c3ccccc3)c(O)c2C(c2ccc(C(=O)O)cc2)c2c(-c3ccc(OC)cc3)nn(-c3ccccc3)c2O)cc1 | 2 |
| CCc1ncsc1C(=O)OCC1(C#N)CCOCC1 | -8 |
| O=C(Nc1ccccc1)Nc1cnc(-n2ccnc2)nc1 | 40 |
| COc1ccsc1S(=O)(=O)N(CCN(C)C)C1CCCC1 | -14 |
| O=C(N1CCC(O)CC1)C(F)(F)Cl | 4 |
| CC(C)(CO)NCc1ccccc1Cl | -3 |

| Compound | % Inhibition [%] |
| --- | --- |
| COc1ccc(CCNC(=O)Cc2ccc3c(c2CO)OCO3)cc1OC | -7 |
| CN(Cc1cccc(OC(F)(F)F)c1)[C@H]1CCc2nn(C)c(=O)n2CC1 | -1 |
| COCc1ncc(-c2noc(C3CC4CCC3C4)n2)c(N)n1 (configuration not stated) | -11 |
| COc1ccc(CN(C)[C@H]2CCc3nn(C)c(=O)n3CC2)c(Cl)c1OC | -11 |
| Cc1ccc(S(=O)(=O)Cc2nc(-c3ccc(C(=O)Nc4c(C)cccc4C)cc3)oc2C)cc1 | 3 |
| CCCCC(=O)N1CCc2[nH]nc(C(=O)NCCc3ccc(OC)cc3)c2C1 | 4 |
| Cc1cc(NC(=O)C(=O)Nc2cnn(CCC(C)C)c2C)n(C)n1 | -7 |
| COc1ccc(CCNC(=O)CCC(=O)Nc2ccc(OCc3ccccc3)cc2)cc1OC | -11 |
| CC(C)c1ccc2ncnc(N[C@H]3CCc4[nH]cnc4C3)c2c1 | 97 |
| CCOC(=O)c1nccc(C#N)c1Cl | 0 |
| Cc1cc(C(=O)N2CCCC[C@H]2c2nc(=O)[nH][nH]2)nn1C(F)F | -2 |
| O=C(Nc1ccccc1)C(=O)Nc1ccc2ncc(Cl)n2c1 | -3 |
| O=C1NCCC[C@@H]1NS(=O)(=O)N1CCc2ccccc2C1 | 0 |
| CC(C)(NCc1ccccc1Cl)C(=O)O | 4 |
| Cc1ccsc1CNCc1ccc2c(c1)OCO2 | -17 |
| COc1cc(OC)c(OC)cc1CNC(C)C | -2 |
| Cc1nc(Nc2ccc(F)cc2)nc2c1ncn2-c1ccc(F)cc1 | -18 |
| Cc1cc(NC(=O)C(=O)NC2CC(C)CC(C)(C)C2)n(-c2nc3c(c(=O)[nH]2)CCC3)n1 (configuration not stated) | 90 |
| COC1CCCC1NC(=O)Nc1ncc(Br)cc1C (configuration not stated) | 74 |
| COc1ccc(-n2cnc3cc(NCc4cccs4)ccc32)cc1 | -10 |
| CC(C)CC1NC2(C(=O)N(Cc3ccc(F)cc3)c3ccccc32)C2C(=O)N(c3ccccc3)C(=O)C12 (configuration not stated) | 6 |
| COc1ccc(OC)c(-c2csc(N3C(=O)CC4CS(=O)(=O)CC43)n2)c1 (configuration not stated) | 7 |
| Cc1ccc2c(c1)c1c(n2S(=O)(=O)c2ccc(C(C)(C)C)cc2)CCCN(C)C1 | 76 |
| COc1ccc(CC(=O)N2CCC3(CC[C@@H]3O)CC2)cc1Cl | 1 |
| COc1cc(-c2nnc3n2CC(C)(C)CN3)cc(OC)c1OC | 1 |
| Cc1cc(C)n(C(=O)CNC(=O)c2ccccn2)n1 | 2 |

| Compound | % Inhibition [%] |
| --- | --- |
| CN1CCN(C(=O)[C@@H]2Cc3ccccc32)CC1 | 2 |
| Cc1nn(-c2nncc(-c3ccc(Cl)cc3)n2)c2c1[C@@H](c1cc(F)ccc1F)CC(=O)N2 | 13 |
| O=C1O[C@@H](CO)CN1c1cccc(F)c1 | -4 |
| CCN(CC)C(=O)[C@@H]1CCCN1C(=O)CCCc1ccccn1 | -18 |
| CCN1C(=O)Cc2cc(NS(=O)(=O)Cc3ccccc3)ccc21 | -5 |
| CNC(=NCc1ccc(-c2ccc(OC)cc2)s1)NC | 0 |
| CN1CCC(N2CCN(Cc3ccc4cc(O)ccc4c3)CC2)CC1 | 46 |
| CC(C)(C)OC(=O)NCC#Cc1cccc(F)c1 | -23 |
| COc1nc(-c2cccc(C(=O)N3C[C@@H]4CC[C@H](C3)C(=O)N4)c2)ncc1F | 67 |
| Cc1ccc(NC(=N)NC2=N[C@@H](CC(=O)Nc3cccc(C(F)(F)F)c3)C(=O)N2)cc1 | -13 |
| CNS(=O)(=O)c1ccc(NCc2nnc3ccccn23)c(F)c1 | 1 |
| Cc1ccc(S(=O)(=O)N(CC(=O)N[C@@H](C)c2ccccc2)c2cccc(Br)c2)cc1 | 8 |
| C[C@](O)(CNC(=O)Cn1nc2ccccn2c1=O)c1cccs1 | -1 |
| Cc1ccc(CC[C@H]2Nc3ccccc3C(c3ccccc3)(c3ccccc3)O2)o1 | 74 |
| C=CCCS(=O)(=O)NCc1ccncc1 | -5 |
| COc1ccc(-c2oc(C)c(C)[n+]2[O-])cc1OC | -2 |
| OC[C@H](Nc1ncncc1Br)c1ccccc1F | 0 |
| CC(C)c1nnc(CN2CC[C@H](OC(F)F)C2)o1 | -2 |
| CCc1cc(=O)[nH]c(-n2nc(C3CC3)cc2NC(=O)C2CCCCC2)n1 | 88 |
| O=C1NCCC[C@@H]1NC(=O)[C@@H]1CN(C(=O)C2CCCCC2)CCN1C(=O)Nc1ccccc1 | 2 |
| Cc1cc(-c2ccc(S(=O)(=O)N3CCOCC3)s2)n[nH]1 | 4 |
| Cc1c(NS(=O)(=O)c2cccc3nsnc23)c(-n2cnnc2)nn1C | -8 |
| CC(Oc1ccc2c(c1)C(c1ccccc1)N(Cc1ccccc1F)CC2)C(=O)NC1CC1 (configuration not stated) | 56 |
| O=C(Nc1ccccc1Cl)OCc1cncs1 | 0 |
| O=S(=O)(NCc1cccnc1)Oc1ccccc1O | -5 |
| O=C(COc1ccc(Cl)cc1)N[C@H](CO)CC1CCCC1 | 1 |

| Compound | % Inhibition [%] |
| --- | --- |
| CC(=O)N1CCc2sc(C(=O)N3CCN(c4ccccc4F)CC3)cc2C1 | -7 |
| O=C(c1ccccc1)n1c(=O)n(C(=O)c2ccccc2)c2ccccc21 | 6 |
| CNC(=O)CCS(=O)(=O)CCCC(=O)Nc1c(C)cc(C)cc1C | -14 |
| CC1=NN(C(=O)Cc2ccc(Cl)c(O)c2)C(=O)C1 | 2 |
| Cc1ccc(S(=O)(=O)Nc2cccc(-c3csc(C)n3)c2)cc1 | 0 |
| CC(C)c1nnc(CNc2ccc(C#N)cc2)o1 | 4 |
| COc1ccc(CC(=N)Nc2cc3cc(OC)c(OC)cc3c(Cc3ccc(OC)c(OC)c3)n2)cc1OC | 80 |
| O=S(=O)(CCCc1cn[nH]c1)[C@H]1CCc2c(F)cc(F)cc21 | -5 |
| Cc1ccc(-n2c(=O)c3sccc3n(CC(=O)NCc3ccc(F)cc3F)c2=O)cc1C | -13 |
| O=C1CCC[C@H](O)N1Cc1ccc(F)cc1 | 4 |
| O=C1c2cc3ccccc3c(-c3ccccc3)c2C(=O)N1c1ccccc1 | -18 |
| CC(C(=O)Nc1ncccn1)N1CCCC1Cn1cccn1 (configuration not stated) | -4 |
| CCN1CN(C(=O)Cc2c[nH]c3cc(C)ccc23)CC1=O | -10 |
| CC(=O)N[C@H]1[C@H](c2ccccc2)N(CCCc2ccccc2)CC[C@@]1(C)O | 1 |
| COc1ccc(N2CCN(C(=O)CCn3nc(-c4cccc(Cl)c4)ccc3=O)CC2)cc1 | -21 |
| O=C1c2cc3ccccc3n2C[C@](C(=O)NC2CCCCCCC2)(c2ccccc2)N1Cc1cccc(Cl)c1 | -9 |
| COc1ccc2c(c1)CN(C(=O)[C@H]1OCCO[C@H]1C)CCO2 | -1 |
| Nc1nccnc1C(=O)Nc1c(-c2ccccc2)ncn1C1CC1 | -4 |
| Cc1ccc(C2=NC3(CCCC3)NC2=O)cc1 | 3 |
| Cc1cccc(CNC(=O)c2ccc3c(c2)N(C)[C@@H]2CCCCCN2C3=O)c1 | -4 |
| C[C@@H](C1CC1)N(C1CC1)S(=O)(=O)c1cccc2c1N=S=N2 | 6 |
| CC(=O)N1CCn2c(nnc2[C@@H]2CCCN2S(=O)(=O)c2cc(F)ccc2F)C1 | -6 |
| COc1cccc(-c2ccc(=O)n(CCC(=O)N3CCN(Cc4ccc5c(c4)OCO5)CC3)n2)c1 | 1 |
| O=C(c1cscn1)N1CC[C@H](Oc2cccc(Cl)c2)C1 | 48 |
